Experimental data reported in PMC4336329 (PLoS ONE, 2015).
Among all 310,000 compounds or so, about 2,200 (0.71%) showed an effect of 50% or more. The effect is printed as a negative number. The list shows a part of the results.

Biological target: human ether-à-go-go-related gene (hERG) potassium channel (human, UniProt Q12809)
Assay: primary screen, population patch clamp on CHO cells stably expressing hERG

Chain of human ether-à-go-go-related gene (hERG) potassium channel (Q12809 whole entry, looked up): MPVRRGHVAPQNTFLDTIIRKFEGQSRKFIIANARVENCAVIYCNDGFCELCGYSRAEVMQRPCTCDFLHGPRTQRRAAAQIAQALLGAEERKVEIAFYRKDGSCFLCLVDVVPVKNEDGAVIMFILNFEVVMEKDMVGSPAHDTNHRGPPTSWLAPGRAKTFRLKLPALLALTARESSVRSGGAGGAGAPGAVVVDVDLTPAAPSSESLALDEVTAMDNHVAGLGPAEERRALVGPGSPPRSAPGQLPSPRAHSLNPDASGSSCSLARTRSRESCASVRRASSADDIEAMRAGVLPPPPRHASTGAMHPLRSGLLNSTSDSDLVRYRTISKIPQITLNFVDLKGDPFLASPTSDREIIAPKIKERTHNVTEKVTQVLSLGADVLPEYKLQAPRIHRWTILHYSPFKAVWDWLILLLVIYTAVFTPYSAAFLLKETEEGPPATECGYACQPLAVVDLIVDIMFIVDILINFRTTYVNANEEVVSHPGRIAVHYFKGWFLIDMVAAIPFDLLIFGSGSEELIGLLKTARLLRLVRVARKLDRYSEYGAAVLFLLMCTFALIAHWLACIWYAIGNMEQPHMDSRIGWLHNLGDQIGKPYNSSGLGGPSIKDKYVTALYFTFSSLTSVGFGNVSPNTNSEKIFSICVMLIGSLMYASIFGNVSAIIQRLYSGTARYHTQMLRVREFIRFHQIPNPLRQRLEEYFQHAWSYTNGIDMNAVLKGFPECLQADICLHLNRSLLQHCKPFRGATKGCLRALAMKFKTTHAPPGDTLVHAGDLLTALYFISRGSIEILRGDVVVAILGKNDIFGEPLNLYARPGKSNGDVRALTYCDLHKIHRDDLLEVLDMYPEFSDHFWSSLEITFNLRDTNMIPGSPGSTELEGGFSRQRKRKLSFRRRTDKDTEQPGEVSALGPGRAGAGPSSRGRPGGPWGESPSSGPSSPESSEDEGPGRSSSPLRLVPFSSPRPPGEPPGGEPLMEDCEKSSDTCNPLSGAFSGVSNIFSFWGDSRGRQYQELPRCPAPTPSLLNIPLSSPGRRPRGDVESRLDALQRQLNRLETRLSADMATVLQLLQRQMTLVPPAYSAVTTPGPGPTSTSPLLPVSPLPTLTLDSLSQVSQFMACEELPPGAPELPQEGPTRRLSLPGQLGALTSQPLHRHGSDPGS

Row | Compound | hERG current change (%, negative = inhibition) at 1uM [%]
1 | c1cncc(-c2nnc3n2N=C(c2cccs2)CS3)c1 | -4.88
2 | CC(=O)OCCNc1cc(SCc2ccco2)c2nonc2c1[N+](=O)[O-] | 3.43
3 | CCOc1cc([N+](=O)[O-])cc(/C=C2/NC(=O)N(Cc3ccccc3F)C2=O)c1O | 4.45
4 | CCOC(=O)C(C)Sc1ccc2nnc(CCNS(=O)(=O)c3ccccc3)n2n1 (stereo not drawn) | 9.82
5 | CN(C)S(=O)(=O)N1CCC(Oc2ccc(C(=O)NC3CCOC(C)(C)C3)cc2)CC1 (stereo not drawn) | 11.8
6 | CC(C)[C@H](NC(=O)c1cccc(S(=O)(=O)N2CCOCC2)c1)C(=O)Nc1nccs1 | 7.18
7 | CC(=O)c1cc2c(cc1NC(=O)Cn1nc(-c3ccc(C)cc3)ccc1=O)OCO2 | 0.773
8 | Cc1nc(NCCOc2ccccc2)sc1C(=O)Nc1ccccc1 | 13.9
9 | O=[N+]([O-])c1cccc(CNc2ccc3c(c2)CCC3)c1 | 4.27
10 | Cc1ccc(OC(=O)C23CC4CC(CC(C4)C2)C3)c(C)n1 | 12.1
11 | O=C1CN(C(=O)c2ccccc2)C(c2ccccc2)c2cc(Cl)ccc2N1 (stereo not drawn) | -5.25
12 | Cc1c(C(=O)NCc2ccccc2CN2CCCC2)oc2c(F)cccc12 | -1.75
13 | Cc1ccc(NC(=O)c2ccc(CN3CC(=O)N4CCCCC4C3=O)cc2)c(C)c1 (stereo not drawn) | 4.54
14 | Cc1ccc(NC(=O)Cn2nnc(C(=O)NCc3cccs3)c2N)c(C)c1 | 15.3
15 | CCCCOc1ccc(OCCCN2CCOCC2)cc1.Cl | -0.223
16 | COc1cc(/C=C(\C#N)C(=O)N2CCOCC2)cc(Br)c1O | 8.38
17 | Oc1ccc(/C=N/N(c2ccccc2)c2ccccc2)cc1O | 11.5
18 | Oc1[nH]c2ccccc2c1N=NC(=S)N1CCOCC1 | 9.53
19 | O=C(c1nn2c(C(F)(F)F)cc(-c3cccs3)nc2c1Cl)N1CCCc2ccccc21 | 14.2
20 | Cc1ccc(N2C(=O)[C@@H]3C(C(=O)CN4C(=O)c5ccccc5C4=O)=NN[C@@H]3C2=O)c(C)c1 | 14.2
21 | COc1cccc(OC)c1C(=O)NC(=S)N1CCN(c2ccc(C(F)(F)F)cc2[N+](=O)[O-])CC1 | -9.25
22 | Cc1cc(C)n(-c2ccc(C(=O)Nc3ccc(C)c(S(=O)(=O)N(C)C)c3)cc2)n1 | 1.12
23 | Cc1c(NC(=O)C(C)OC(=O)c2c3c(nc4ccccc24)CCC3)c(=O)n(-c2ccccc2)n1C (stereo not drawn) | -7.3
24 | Cc1nc(N2CCN(c3ccccn3)CC2)c2c(C)c(C(=O)Nc3ccc(Cl)cc3)sc2n1 | 13.4
25 | c1ccc2c(SCc3cn4cccnc4n3)ncnc2c1 | 7.65
26 | CCn1c(SCC(=O)N2CCCc3ccccc32)nnc1-c1ccco1 | 3.48

Row | Compound | hERG current change (%, negative = inhibition) at 1uM [%]
27 | Cc1ccc(S(=O)(=O)N2CCCC(C(=O)Nc3cccnc3)C2)cc1 (stereo not drawn) | -6.51
28 | CN(C)C(CNC(=O)C1CCN(S(=O)(=O)c2cccc(Cl)c2Cl)CC1)c1ccccc1 (stereo not drawn) | -1.84
29 | CCN1CCN(c2ccc(S(=O)(=O)N3CCCCC3)cc2NC(=O)c2ccc([N+](=O)[O-])s2)CC1 | -13.8
30 | CCc1nnc(NC(=O)Cc2sc(C)nc2-c2ccc(C)cc2)s1 | 11.5
31 | O=C(NCCCN1CCN(Cc2ccccc2)CC1)C1CCN(S(=O)(=O)N2CCC3(CC2)OCCO3)CC1 | 8.57
32 | CC(=O)Nc1nc2ccc(C(=O)NCCOC(=O)C3CCCCC3)cc2s1 | 3.91
33 | CCOc1cc(/C=C2/C(=O)ON=C2C)cc(Br)c1O | 16.2
34 | Cc1ccc(S(=O)(=O)NN)c(C)c1N1CCCC1=O | 7.47
35 | Cc1ccc(S(=O)(=O)N(CC(=O)NCc2ccco2)Cc2ccc(F)cc2)cc1 | -13.6
36 | CCOc1ccccc1N1CCN(C(=O)c2c(-c3c(F)cccc3Cl)noc2C)CC1 | 13.7
37 | COc1ccc(/C=N/NC(=O)Cn2nc([N+](=O)[O-])cc2C)c(OC)c1OC | 15.5
38 | CCOC(=O)c1c(C)n(COCCO)c2ccc(O)cc12 | 15
39 | O=C(CSc1nc2ccccc2n1CCc1ccccc1)NC1CCS(=O)(=O)C1 (stereo not drawn) | 6.7
40 | CCNC(=O)NC(=O)C(C)OC(=O)C1CCN(S(=O)(=O)c2ccccc2C(=O)OC)CC1 (stereo not drawn) | 10.2
41 | NC(=O)c1nc(C(=O)N2CCN(c3ccccc3)CC2)c2ccccc2n1 | 9.67
42 | COc1ccc(NC(=O)CSc2nc3c(sc4ccccc43)c(=O)n2CCCN2CCCC2)cc1 | -1.35
43 | CCOC(=O)C1=C(Cn2cnc3ccccc32)NC(=O)NC1c1cc(C)ccc1C (stereo not drawn) | 12.2
44 | COc1ccccc1N1CCN(C(=O)CSc2ncnc3c2cnn3-c2ccc(C)c(C)c2)CC1 | 8.88
45 | CC1(C)O[C@H]2CC(=O)OC[C@]23[C@H]2CC[C@@]4(C)[C@H](c5ccoc5)OC(=O)[C@H]5O[C@]54[C@]2(C)[C@@H](O)C[C@@H]13 | 12.2
46 | Cc1ccc(C(=O)C2CCN(C(=O)c3ccc(C)cc3)CC2)cc1 | 9.84
47 | O=C(C(Cc1ccccc1)n1cccc1)N1CCN(c2ccccc2)CC1 (stereo not drawn) | 15.3
48 | COc1ccc(N2CCN(CC(O)COC(c3ccc(F)cc3)c3ccc(F)cc3)CC2)cc1.O=C(O)C(=O)O (stereo not drawn) | -74
49 | COc1ccc(CNC(=O)c2cccc(S(=O)(=O)N3CCCCC3)c2)cc1OC | 8.06
50 | COC(=O)Nc1ccc(S(=O)(=O)N2CCCc3cccc(O)c32)cc1 | 40.1
51 | CN(C)CCNc1nc2c(c(=O)[nH]c(=O)n2C)n1CC(O)COc1ccc(Cl)cc1 (stereo not drawn) | 5.04
